The RNAGym collection of RNA variant scans (doi:10.1101/gad.245936.114)
Variants at the background level are over-represented here.

B1: tRNA (parent)
chain: CUCUCGGUAGCCAAGUUGGUUUAAGGCGCAAGACUUUAAUUUAUCACUACGAAAUCUUGAGAUCGGGCGUUCGACUCGCCCCCGGGAGAUUUUUUCCUCGAGCAA

Variants of: B1
Assay: nonsense suppression (GFP-seq) (ratio to wild type); higher = more function; SUP4oc tRNA, yeast GFP reporter sort-seq
Outline: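 Raffinose/galactose medium with 80 mg/L adenine was used to grow yeast carrying genome-integrated tRNA variants (~3% random-mutation library), RFP, and a galactose-driven GFP ochre reporter. Cells went into GFP/RFP bins, which were Illumina-sequenced, and variants with ≥100 reads and ≥30 cells were scored. Nonsense suppression (GFPSEQ) is the per-bin median GFP/RFP weighted by estimated cell share and expressed relative to the unmutated parent tRNA.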
Work on CUCUCGGUAGCUAAGUUGGUUUUAGGCGCAAGACUUUAAUUUAUCACUACGAAAUCUUGAGAUCGGGAGUUCGACUCGCCCCCGGGAGAUUUUUUCCUCGAGCAA [C12U A23U C68A] yielded a nonsense suppression of no more than 0.026. CUCUCGGUAGCUAAGUUGGUUUACGUCGCAAGACUUUAAUUUAUCACUACGAAAUCUUGAGAUCGGGCGUUCGCCCCGCCCCCGGGAGAUUUUUUCCUCGAGCAA [C12U A24C G26U A74C U76C] showed a nonsense suppression of no more than 0.026. CUCUCGGUAGCUAAGUUGGUUUAAGGCGCGAGACUUUAAUUUAUCACUACGAAAUCUUGAGAUCGGGCGUUCGACUCGCCCCCGGGAGAUUUUUUCCUCGAGCAA [C12U A30G] gave a nonsense suppression of 0.363. With CUCUCGGUAGCUAAGUUGGUUUAAGGCGCUAGACUUUAAUUUAUCACUACGAAAUCUUGAUAUCGGGCGUUCGACUCGCCCCCGGGAGAUUUUUUCCUCGAGCAA [C12U A30U G61U] the nonsense suppression was no more than 0.026. For CUCUCGGUAGCUAAGUUGGUUUAAGGCGCAGGACUUUAAUUUAUCACUACGAAAUCUUGAGAUCGGGCGUUCGACUGGCCCCCGGGAGAUUUUUUCCUCGAGCAA [C12U A31G C77G], the nonsense suppression was no more than 0.026. In the case of CUCUCGGUAGCUAAGUUGGUUUAAGGCGCAAGGCUUUAAUUUAUCACUACGAAAUGUUGAGAUCCGGCGUUCGACUCGCCCCCGGGAGAUUUUUUCCUCGAGCAA [C12U A33G C56G G65C], the nonsense suppression is reported as no more than 0.026. With CUCUCGGUAGCUAAGUUGGUUUAAGGCGCAAGUCUUUAAUUUAUCACUACGAAAUAUUGAGAACGGGCGUUCGACUCGCCCCCGGGAGAUUUUUUCCUCGAGCAA [C12U A33U C56A U63A] the nonsense suppression was no more than 0.026. CUCUCGGUAGCUAAGUUGGUUUAAGGCGCAAGUCUUUAAUUUAUCACUACGAAAGCUUGAGAUCGGGCAUCCGACUCGCCCCCGGGAGAUUUUUUCCUCGAGCAA [C12U A33U U55G G69A U71C] showed a nonsense suppression of no more than 0.026. Variant CUCUCGGUAGCUAAGUUGGUUUAAGGCGCAAGACUUUAAUUUAUCACUACGAAGUCUUGAGCUCGGGCGUUCGACUCGCCCCCGGGAGAUUUUUUCCUCGAGCAA [C12U A54G A62C] has a nonsense suppression of no more than 0.026. CUCUCGGUAGCUAAGUUGGUUUAAGGCGCAAGACUUUAAUUUAUCACUACGAAGUCUUGAGAUCGGGCAUUCGACUCGCCCCCGGGAGAUUUUUUCCUCGAGCAA [C12U A54G G69A] gave a nonsense suppression of no more than 0.026. For CUCUCGGUAGCUAAGUUGGUUUAAGGCGCAAGACUUUAAUUUAUCACUACGAAAUCUUGAGAUCGGGCGUUCGCCUCGCCCCCGGGAGAUUUUUUCCUCGAGCAA [C12U A74C], the nonsense suppression was no more than 0.026. CUCUCGGUAGCUAAGUUGGUUUAAGGCGCAAGACUUUAAUUUAUCACUACGAAAUCUUGAGAUCGGGCGUUCGUCUCGCCCCCGGGAGAUUUUUUCCUCGAGCAA [C12U A74U] gave a nonsense suppression of no more than 0.026. For CUCUCGGUAGCUAAGUUGGUUUAAGGAGCAAGACUUUAAUUUAUCACUACGAAAUCUUGAGAUCGGGCGUUCGACUCGCCCCCGGGACAUUUUUUCCUCGAGCAA [C12U C27A G88C], the nonsense suppression was no more than 0.026. With CUCUCGGUAGCUAAGUUGGUUUAAGGGGCAAGACGUUAAUUUAUCACUACGAAAUCUUGAGAUCGGGCGUUCGACUCGCCCCCGGGAGAUUUUUUCCUCGAGCAA [C12U C27G U35G] the nonsense suppression was no more than 0.026. Work on CUCUCGGUAGCUAAGUUGGUUUAAGGUGCAAGACUUUAAUUUAUCACUACGAAAUCUUGAGAUCGGGCGUUCGACUCGCCCCCGGGAGAUUUUUUCCUCGAGCAA [C12U C27U] yielded a nonsense suppression of 0.121. For CUCUCGGUAGCUAAGUUGGUUUAAGGUGCAAGACUUUAAUUUAUCACUACGAAAUCUUGAGAUCGGGCGCUCGACUCGCCCCCGGGAGAUUUUUUCCUCGAGCAA [C12U C27U U70C], the nonsense suppression was no more than 0.026. CUCUCGGUAGCUAAGUUGGUUUAAGGCGAAAGACUUUAAUUUAUCACUACGAAAUCUUGAGAUCGGGUGUUCGACUCGCCCCCGGGAGAUUUUUUCCUCGAGCAA [C12U C29A C68U] gave a nonsense suppression of no more than 0.026. Variant CUCUCGGUAGCUAAGUUGGUUUAAGGCGGAAGACAUUAAUUUAUCACUACGAAAUCUUGAGAUCGGGCGUUCGACUCGCCCCCGGGAGAUUUUUUCCUCGAGCAA [C12U C29G U35A] has a nonsense suppression of no more than 0.026. In the case of CUCUCGGUAGCUAAGUUGGUUUAAGGCGUAAGACUUUAAUUUAUCACUACGAAAUCUUGAGAUCGGGCGUUCGACUCGACCCCGGGAGAUUUUUUCCUCGAGCAA [C12U C29U C79A], the nonsense suppression is reported as no more than 0.026. Work on CUCUCGGUAGCUAAGUUGGUUUAAGGCGCAAGAGUUUAAUUUAUCACUACGAAAUCUUGAGAUCGGGAGGUCGACUCGCCCCCGGGAGAUUUUUUCCUCGAGCAA [C12U C34G C68A U70G] yielded a nonsense suppression of no more than 0.026. CUCUCGGUAGCUAAGUUGGUUUAAGGCGCAAGAUUUUAAUUUAUCACUACGAAAUCUUGAGAUCGGGCGAUCUACUCGCCGCCUGGAGAUUUUUUCCUCGAGCAA [C12U C34U U70A G73U C81G G84U] gave a nonsense suppression of no more than 0.026. For CUCUCGGUAGCUAAGUUGGUUUAAGGCGCAAGACUUUAAUUUAUCACUACGAAAUAUUAAGAUCGGGCGUUCGACUCGCCCCCGGGAGAUUUUUUCCUCGAGCAA [C12U C56A G59A], the nonsense suppression was no more than 0.026. CUCUCGGUAGCUAAGUUGGUUUAAGGCGCAAGACUUUAAUUUAUCACUACGAAAUCUUGAGAUAGGGCGUUCGACUCGCCCCCGGGAGAUUUUUUCCUCGAGCAA [C12U C64A] showed a nonsense suppression of no more than 0.026. CUCUCGGUAGCUAAGUUGGUUUAAGGCGCAAGACUUUAAUUUAUCACUACGAAAUCUUGAGAUAGGGCGUUCAACUCGCCCCCGGGAGAUUUUUUCCUCGAGCAA [C12U C64A G73A] gave a nonsense suppression of no more than 0.026. CUCUCGGUAGCUAAGUUGGUUUAAGGCGCAAGACUUUAAUUUAUCACUACGAAAUCUUGAGAUUGGGCGUUCGACUCGCCCCCGGGAGAUUUUUUCCUCGAGCAA [C12U C64U] showed a nonsense suppression of no more than 0.026. CUCUCGGUAGCUAAGUUGGUUUAAGGCGCAAGACUUUAAUUUAUCACUACGAAAUCUUGAGAUUGGGCCUUCGACUCGCCCCUGGGAGAUUUUUUCCUCGAGCAA [C12U C64U G69C C83U] showed a nonsense suppression of no more than 0.026. In the case of CUCUCGGUAGCUAAGUUGGUUUAAGGCGCAAGACUUUAAUUUAUCACUACGAAAUCUUGAGAUCGGGCGUUCGACUCGCGCCCGGGAGAUUUUUUCCUCGAGCAA [C12U C80G], the nonsense suppression is reported as no more than 0.026.
